# Where “and” joins values, the source holds several entries; their conditions need not be identical. Equal values may be shown once. Inconclusive results, whose numbers are uncertain, are shown with a selection of clear calls. For some assays here: Potencies beside an inconclusive call are fits to weak or partial responses and may not hold up. More than one record can exist for a structure, and the calls need not agree. Calls of active or inactive are those of the source. Unless noted, calls follow the shape of the dose curve; as a rule, active = well fitted curve in the direction sought with a large enough effect in the repeat runs; inconclusive = weak or mixed curves; inactive = no such curve, though single readings can be large; an effect the other way counts as inactive or inconclusive.
# What was measured:
# [1] = target: Peroxisome proliferator-activated receptor gamma (Homo sapiens) (UniProt P37231); assay: qHTS assay to identify small molecule antagonists of the peroxisome proliferator-activated receptor gamma (PPARg) signaling pathway (AID 743191; calls by dose curve; also: nearly all actives have a fitted effect of over 30% in size; also: potency is read from the fitted curve at half-maximal effect); details: HEK293H PPARg-UAS-bla, beta-lactamase ratio, antagonist, 17 h; ratio activity, negative = inhibition: at 62.6 µM (top of the series) unless noted
# Sequence of UniProt P37231 (P37231 whole entry, looked up): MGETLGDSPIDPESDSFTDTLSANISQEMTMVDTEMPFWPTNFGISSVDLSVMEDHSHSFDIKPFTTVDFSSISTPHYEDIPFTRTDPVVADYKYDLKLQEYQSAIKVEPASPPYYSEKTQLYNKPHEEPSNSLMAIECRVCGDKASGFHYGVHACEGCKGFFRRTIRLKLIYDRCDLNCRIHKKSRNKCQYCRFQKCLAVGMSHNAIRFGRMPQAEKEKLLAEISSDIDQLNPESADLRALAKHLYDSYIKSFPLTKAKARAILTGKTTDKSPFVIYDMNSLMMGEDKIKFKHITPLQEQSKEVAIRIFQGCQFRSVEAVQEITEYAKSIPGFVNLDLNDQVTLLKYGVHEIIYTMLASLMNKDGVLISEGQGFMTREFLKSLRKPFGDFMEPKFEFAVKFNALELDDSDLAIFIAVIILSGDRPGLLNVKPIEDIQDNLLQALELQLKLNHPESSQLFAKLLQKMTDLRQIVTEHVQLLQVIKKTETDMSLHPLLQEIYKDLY
# Outline: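 Beta-lactamase reporter under UAS control in HEK293H PPARg-bla cells; compound treatment 17 h at 37C. Read-out: fluorescence intensity after 1 h room-temperature incubation with LiveBLAzer B/G FRET substrate.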
# [2] = qHTS assay for small molecule agonists of the antioxidant response element (ARE) signaling pathway (AID 743202; active = well fitted activation curve with a large enough effect in the signal ratio in the repeat runs, not every such curve was filed as active; inconclusive = weak or mixed curves, or effect the other way; inactive = no such curve, though single readings can be large or run the other way; the % refers to the signal ratio; also: potency is read from the fitted curve at half-maximal effect); details: HepG2 ARE-bla reporter, beta-lactamase FRET, 16 h
# Outline: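 Beta-lactamase reporter activity, read as fluorescence intensity, reflects ARE/Nrf2 pathway induction in HepG2 cells after 16 h compound exposure at 37 C; substrate loading was 2 h at room temperature.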
# [3] = qHTS assay for small molecule activators of the heat shock response signaling pathway (AID 743210; active = well fitted activation curve with a large enough effect in the signal ratio in the repeat runs, with a control signal flat, not every such curve was filed as active; inconclusive = weak or mixed curves; the % refers to the signal ratio; also: potency is read from the fitted curve at half-maximal effect;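 as to activation: HeLa cells with beta-lactamase reporter driven by heat shock elements; % is scaled to controls: 0 for no effect and ±100 for the full control effect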); details: HeLa HSE-bla reporter, beta-lactamase ratio, 5 h; activation: at 62.6 µM (top of the series)
# Outline: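 Fluorescence from a cleaved B/G FRET substrate (2.5 h, room temp) reports HSE-driven beta-lactamase in HeLa cells treated 5 h at 37 C with DMSO-dissolved compounds.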
# [4] = qHTS assay to identify small molecule agonists of the peroxisome proliferator-activated receptor delta (PPARd) signaling pathway - cell viability counter screen (AID 743211); details: PPARd-bla HEK293H viability, CellTiter-Glo luminescence, 17 h; activity change, negative = cytotoxicity: at 62.6 µM (top of the series) unless noted; also: potency is read from the fitted curve at half-maximal effect; nearly all actives have a fitted effect of over 55% in size
# Outline: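 Counter screen for cytotoxicity run in parallel with the PPARd reporter screen. Beta-lactamase reporter HEK293H cells exposed to compounds 17 h; ATP-based CellTiter-Glo luminescence quantified viability.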
# [5] = target: Peroxisome proliferator-activated receptor delta (Homo sapiens) (UniProt Q03181); assay: qHTS assay to identify small molecule agonists of the peroxisome proliferator-activated receptor delta (PPARd) signaling pathway (AID 743212; calls by dose curve; also: % is scaled to controls: 0 for no effect and ±100 for the full control effect); details: HEK293H PPARd-UAS-bla, beta-lactamase FRET ratio, 17 h
# Sequence of UniProt Q03181 (Q03181 whole entry, looked up): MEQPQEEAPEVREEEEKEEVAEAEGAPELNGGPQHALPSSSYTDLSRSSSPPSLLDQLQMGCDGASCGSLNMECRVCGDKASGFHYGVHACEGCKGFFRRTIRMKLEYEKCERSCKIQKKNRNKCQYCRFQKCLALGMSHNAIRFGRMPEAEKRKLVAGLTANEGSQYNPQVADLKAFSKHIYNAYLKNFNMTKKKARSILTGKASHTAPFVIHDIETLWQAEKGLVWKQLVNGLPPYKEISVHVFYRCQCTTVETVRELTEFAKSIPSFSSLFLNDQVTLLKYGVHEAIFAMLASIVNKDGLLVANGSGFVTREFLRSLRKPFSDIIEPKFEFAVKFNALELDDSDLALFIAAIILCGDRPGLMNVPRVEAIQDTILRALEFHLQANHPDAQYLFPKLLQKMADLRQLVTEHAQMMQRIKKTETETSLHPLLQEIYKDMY
# Outline: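 Steps: seed PPARd-bla HEK293H cells; incubate 5 h, 37 C, 5% CO2; add compounds in DMSO; incubate, 37 C; add LiveBLAzer B/G FRET substrate; hold 2 h at room temperature; measure fluorescence.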
# [6] = target: Peroxisome proliferator-activated receptor delta (Homo sapiens) (UniProt Q03181); assay: qHTS assay to identify small molecule antagonists of the peroxisome proliferator-activated receptor delta (PPARd) signaling pathway (AID 743215; active = well fitted inhibition curve with a large enough effect in the signal ratio in the repeat runs, not every such curve was filed as active; inconclusive = weak or mixed curves, or effect the other way; inactive = no such curve, though single readings can be large or run the other way; the % refers to the signal ratio;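 also: cells stimulated with agonist L165041 at 300 nM final during compound exposure; potency is read from the fitted curve at half-maximal effect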); details: HEK293H PPARd-UAS-bla, beta-lactamase FRET ratio, antagonist, 17 h; ratio activity, negative = inhibition: at 62 µM (top of the series) unless noted
# Outline: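 Cells: HEK293H with a UAS-driven beta-lactamase reporter responsive to PPARd. Compounds were co-added with L165041 (300 nM, final) and incubated 17 h at 37 C before a 2 h room-temperature FRET substrate step and fluorescence reading.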
# [7] = target: Bile acid receptor (Homo sapiens) (UniProt Q96RI1); assay: qHTS assay to identify small molecule antagonists of the farnesoid-X-receptor (FXR) signaling pathway (AID 743217; active = well fitted inhibition curve with a large enough effect in the signal ratio in the repeat runs, not every such curve was filed as active; inconclusive = weak or mixed curves, or effect the other way; inactive = no such curve, though single readings can be large or run the other way; the % refers to the signal ratio; also: potency is read from the fitted curve at half-maximal effect); details: HEK293T FXR-UAS-bla, beta-lactamase ratio, CDCA-stimulated, 16 h; activity change, negative = inhibition: at 62.6 µM (top of the series) unless noted
# Sequence of UniProt Q96RI1 (Q96RI1 whole entry, looked up): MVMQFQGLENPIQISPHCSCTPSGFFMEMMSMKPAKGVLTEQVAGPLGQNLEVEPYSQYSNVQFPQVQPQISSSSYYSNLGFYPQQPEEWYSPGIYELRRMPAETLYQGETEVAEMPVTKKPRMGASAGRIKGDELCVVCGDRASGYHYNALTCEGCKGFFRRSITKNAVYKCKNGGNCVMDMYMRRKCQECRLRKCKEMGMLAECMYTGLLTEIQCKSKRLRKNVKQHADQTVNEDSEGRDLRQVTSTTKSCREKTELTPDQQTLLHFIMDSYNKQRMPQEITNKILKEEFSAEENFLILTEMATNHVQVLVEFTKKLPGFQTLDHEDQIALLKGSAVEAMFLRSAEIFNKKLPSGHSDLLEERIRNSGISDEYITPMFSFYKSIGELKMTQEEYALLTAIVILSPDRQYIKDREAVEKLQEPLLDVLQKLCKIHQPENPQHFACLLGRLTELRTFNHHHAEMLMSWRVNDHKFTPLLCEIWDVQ
# Outline: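 Cells carrying a UAS-driven beta-lactamase reporter (GeneBLAzer FXR-UAS-bla HEK 293T) were plated and rested 5 h at 37 °C. Compounds in DMSO were added alongside chenodeoxycholic acid agonist at 50 uM final and left 16 h at 37 °C before FRET substrate readout.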
# [8] = target: Vitamin D3 receptor (Homo sapiens) (UniProt P11473); assay: qHTS assay to identify small molecule antagonists of the vitamin D receptor (VDR) signaling pathway (AID 743223; active = well fitted inhibition curve with a large enough effect in the signal ratio in the repeat runs, not every such curve was filed as active; inconclusive = weak or mixed curves, or effect the other way; inactive = no such curve, though single readings can be large or run the other way; the % refers to the signal ratio; also: % is scaled to controls: 0 for no effect and ±100 for the full control effect); details: VDR-UAS-bla HEK293T, beta-lactamase FRET ratio, 16 h; activity change, negative = inhibition: at 61 µM (top of the series) unless noted
# Sequence of UniProt P11473 (P11473 whole entry, looked up): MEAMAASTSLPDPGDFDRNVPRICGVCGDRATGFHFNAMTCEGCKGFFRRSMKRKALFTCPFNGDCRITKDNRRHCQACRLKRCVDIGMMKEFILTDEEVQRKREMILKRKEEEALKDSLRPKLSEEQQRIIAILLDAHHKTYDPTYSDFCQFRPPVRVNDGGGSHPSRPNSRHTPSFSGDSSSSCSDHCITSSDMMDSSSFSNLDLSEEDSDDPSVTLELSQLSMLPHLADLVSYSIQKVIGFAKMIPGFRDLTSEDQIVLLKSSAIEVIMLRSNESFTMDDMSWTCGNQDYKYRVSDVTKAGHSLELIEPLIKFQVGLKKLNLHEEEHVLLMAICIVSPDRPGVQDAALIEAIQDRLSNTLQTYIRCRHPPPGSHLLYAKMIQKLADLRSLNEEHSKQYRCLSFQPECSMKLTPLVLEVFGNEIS
# Outline: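 Cells carrying a VDR-driven beta-lactamase reporter (VDR-bla) were co-treated with compound and 3 nM final 1alpha,25-dihydroxyvitamin D3 for 16 h at 37C; reporter activity was measured as FRET substrate fluorescence after 2 h at room temperature.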
# [9] = qHTS assay to identify small molecule agonists of the NFkB signaling pathway - cell viability counter screen (AID 1159515; calls by dose curve; also: nearly all actives have a fitted effect of over 55% in size; also: potency is read from the fitted curve at half-maximal effect)
# Outline: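 Cells are seeded (2,000 NFkB-bla ME-180 per well), rested overnight, and dosed with DMSO-dissolved compounds for 5 hr at 37 C. Viability is then read by CellTiter-Glo luminescence after 30 min at room temperature.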
# [10] = qHTS assay to identify small molecule agonists of the endoplasmic reticulum stress response signaling pathway (AID 1159516; active = well fitted activation curve with a large enough effect in the signal ratio in the repeat runs, not every such curve was filed as active; inconclusive = weak or mixed curves, or effect the other way; the % refers to the signal ratio; also: potency is read from the fitted curve at half-maximal effect; as to activation: % is scaled to controls: 0 for no effect and ±100 for the full control effect); details: ESRE-bla HeLa, ER stress beta-lactamase reporter, 5 h; activation: at 61 µM (top of the series) unless noted
# Outline: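 Cells are seeded at 1,500 per well and incubated overnight. Compounds in DMSO are added for 5 hr at 37 C, then beta-lactamase FRET substrate for 2 hr at room temperature, and fluorescence at 460 and 530 nm is measured.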
# [11] = qHTS assay for small molecule activators of the heat shock response signaling pathway - cell viability counter screen (AID 743209); details: HSE-bla HeLa viability, CellTiter-Glo luminescence, 5 h; activity change, negative = cytotoxicity: at 62.6 µM (top of the series) unless noted; also: nearly all actives have a fitted effect of over 50% in size; also: potency is read from the fitted curve at half-maximal effect
# Outline: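 Cytotoxicity counter screen run in parallel with the HSE beta-lactamase reporter, using the same wells. HeLa HSE-bla cells received compound for 5 h at 37 C; ATP-based CellTiter-Glo luminescence was measured after 30 min at room temperature.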
# [12] = qHTS assay to identify small molecule antagonists of the peroxisome proliferator-activated receptor delta (PPARd) signaling pathway - cell viability counter screen (AID 743213); details: PPARd-bla HEK293H viability, CellTiter-Glo luminescence, 17 h; viability change, negative = cytotoxic: at 62 µM (top of the series) unless noted; also: nearly all actives have a fitted effect of over 50% in size; also: potency is read from the fitted curve at half-maximal effect
# Outline: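 Cytotoxicity counter screen: CellTiter-Glo luminescence read 30 min after addition, in the same wells as the reporter assay. There, PPARd UAS-bla HEK293H cells (3000/well) were treated 17 h at 37 C with compound and 300 nM L165041.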
# [13] = qHTS assay to identify small molecule agonists of the farnesoid-X-receptor (FXR) signaling pathway - cell viability counter screen (AID 743218); details: FXR-bla HEK293T viability, CellTiter-Glo luminescence, 16 h; viability change, negative = cytotoxic: at 62.6 µM (top of the series) unless noted; also: potency is read from the fitted curve at half-maximal effect; nearly all actives have a fitted effect of over 45% in size
# Outline: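 Cells were seeded, left 5 h at 37 C and 5% CO2, then dosed with compound in DMSO for 16 h. After the beta-lactamase FRET read, CellTiter-Glo was added and luminescence measured 30 min later.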
# [14] = target: Vitamin D3 receptor (Homo sapiens) (UniProt P11473); assay: qHTS assay to identify small molecule agonists of the vitamin D receptor (VDR) signaling pathway (AID 743222; calls by dose curve; also: potency is read from the fitted curve at half-maximal effect); details: HEK293T VDR-UAS-bla, beta-lactamase FRET ratio, 16 h; activation: at 63.5 µM (top of the series) unless noted
# Outline: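 Cells carrying a VDR-driven beta-lactamase reporter are seeded at 2,000 per well and rested 4 h. Compounds in DMSO are added for 16 h at 37C, and FRET substrate fluorescence is measured after 2 h at room temperature.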
# [15] = qHTS assay to identify small molecule agonists of the vitamin D receptor (VDR) signaling pathway - cell viability counter screen (AID 743224); also: potency is read from the fitted curve at half-maximal effect; nearly all actives have a fitted effect of over 50% in size
# Outline: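 Cells: VDR-bla, 2,000/well, settled 4 h. Treatment: compounds in DMSO, 16 h, 37C/5% CO2. Readout: CellTiter-Glo luminescence after 30 min RT.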
# [16] = qHTS assay to identify small molecule antagonists of the vitamin D receptor (VDR) signaling pathway - cell viability counter screen (AID 743225); details: VDR-bla HEK293T viability, CellTiter-Glo luminescence, 16 h; viability change, negative = cytotoxic: at 61 µM (top of the series) unless noted; also: potency is read from the fitted curve at half-maximal effect; nearly all actives have a fitted effect of over 50% in size
# Outline: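 HEK293T VDR-bla; cpd + 1a,25-(OH)2D3 3 nM final, 16 h 37C/5% CO2; B/G FRET substrate 2 h RT; then CellTiter-Glo 30 min RT, luminescence.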
# [17] = qHTS assay for small molecule agonists of the antioxidant response element (ARE) signaling pathway - cell viability counter screen (AID 743203; calls by dose curve; also: potency is read from the fitted curve at half-maximal effect; nearly all actives have a fitted effect of over 55% in size)
# Outline: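 Cytotoxicity was tested in parallel with the ARE reporter screen. ARE-bla HepG2 cells were exposed to compounds for 16 hrs, and viability was taken from CellTiter-Glo luminescence.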
# [18] = qHTS assay to identify small molecule antagonists of the peroxisome proliferator-activated receptor gamma (PPARg) signaling pathway - cell viability counter screen (AID 743194); details: PPARg-bla HEK293H viability, CellTiter-Glo luminescence, 17 h; Potency: co-treated with 50 nM rosiglitazone unless noted; activity change, negative = cytotoxicity: at 62.6 µM (top of the series), co-treated with 50 nM rosiglitazone unless noted; also: potency is read from the fitted curve at half-maximal effect; nearly all actives have a fitted effect of over 55% in size
# Outline: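 Viability was measured as CellTiter-Glo luminescence in GeneBLAzer PPARg UAS-bla HEK293H cells. These cells had been exposed 17 h at 37 C to compounds together with rosiglitazone at 50 nM final, with the beta-lactamase readout taken in the same wells.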
# [19] = qHTS assay to identify small molecule antagonists of the farnesoid-X-receptor (FXR) signaling pathway - cell viability counter screen (AID 743221; active = well fitted cell-killing curve with a large enough effect in the repeat runs, not every such curve was filed as active; inconclusive = weak or mixed curves, or effect the other way; inactive = no such curve, though single readings can be large or run the other way); details: FXR-bla HEK293T viability, CellTiter-Glo luminescence, 16 h; activity change, negative = cytotoxicity: at 62.6 µM (top of the series) unless noted
# Outline: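 Multiplexed counter screen: viability of FXR-bla HEK 293T cells under agonist stimulation by chenodeoxycholic acid (50 uM, final) and test compound for 16 h at 37 C, measured by CellTiter-Glo luminescence in the reporter wells.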
# [20] = activation: at 73.3 µM (top of the series) unless noted
# Tags tell the direction and shape of the fitted curve or compound fluorescence and quenching.
compound,measurement,setting,value
CCOC(=O)C1(c2ccccc2)CCN(CCC(C#N)(c2ccccc2)c2ccccc2)CC1,Potency,[1],"inconclusive: 5.96 µM [inhibitor, full curve]"
same,Potency,[2]; [20],"inconclusive: 10.6 µM [rising, full curve]"
same,Potency,[3],inconclusive: 19.9 µM
same,Potency,[4],"inconclusive: 3.35 µM [cytotoxic, full curve, poor fit]"
same,activation,[5]; activation: at 62.6 µM (top of the series) unless noted,inconclusive: 3.95%
same,Potency,[6],"inconclusive: 1.19 µM [rising, full curve, poor fit]"
same,Potency,[7],inconclusive: 9.44 µM
same,"activity change, negative = inhibition",[8],inconclusive: -18.1%
same,Potency,[9],"inconclusive: 26.8 µM [cytotoxic, partial curve, poor fit]"
same,activation,[10],inconclusive: 11.5%
C[C@@H]1CC2=CC(=O)CC[C@@H]2[C@H]2CC[C@@]3(C)[C@@H](CC[C@]3(C)O)[C@@H]21,Potency,[2]; [20],"inconclusive: 29.8 µM [rising, single point]"
same,Potency,[3],inactive
same,Potency,[9],inactive
same,Potency,[10],inactive
CN(C)C(=S)[S-].CN(C)C(=S)[S-].[Cu+2],Potency,[2]; [20],active: 1.49 µM
same,Potency,[11],"inconclusive: 0.336 µM [cytotoxic, full curve, poor fit]"
same,Potency,[3],inconclusive: 1.62 µM
same,Potency,[4],active: 0.946 µM
same,Potency,[12],active: 3.36 µM
same,Potency,[13],active: 0.946 µM
same,activation,[14],inconclusive: 5.86% [at 29.5 µM]
same,Potency,[15],active: 1.5 µM
same,Potency,[16],active: 4.74 µM
same,Potency,[9],active: 4.74 µM
same,Potency,[10],"inconclusive: 2.12 µM [falling, full curve]"
CC(C)(C)C(O)C(Oc1ccc(Cl)cc1)n1cncn1 (stereo not given),"ratio activity, negative = inhibition",[1],inconclusive: -17.4%
same,Potency,[17],"inconclusive: 0.386 µM [cytotoxic, full curve, poor fit]"
same,Potency,[11],inactive
same,Potency,[3],"inconclusive: 61.1 µM [activator, single point]"
same,Potency,[4],"inconclusive: 15.4 µM [cytotoxic, single point]"
same,Potency,[12],"inconclusive: 13.7 µM [cytotoxic, full curve, poor fit]"
same,Potency,[14],"inconclusive: 30.6 µM [rising, partial curve, poor fit]"
same,"activity change, negative = inhibition",[8],inconclusive: 3.37% [fluorescent]
same,Potency,[15],"inconclusive: 76.9 µM [cytotoxic, partial curve, poor fit]"
same,Potency,[9],"inconclusive: 0.0014 µM [rising, full curve, poor fit]"
same,Potency,[10],"inconclusive: 69.2 µM [rising, partial curve, poor fit]"
CC(=O)[O-].CC(=O)[O-].[Hg+2],Potency,[18],active: 0.977 µM
same,Potency,[2]; [20],"inconclusive: 1.72 µM [falling, full curve]"
same,Potency,[17],active: 1.22 µM
same,Potency,[11],active: 1.38 µM
same,Potency,[12],active: 3.47 µM
same,Potency,[13],active: 1.1 µM
same,Potency,[19],active: 3.09 µM
same,Potency,[16],active: 3.09 µM
same,Potency,[9],active: 0.871 µM
same,Potency,[10],inconclusive: 1.38 µM [full curve]
NCCc1cc(O)c(O)cc1O,activation,[2]; [20],inconclusive: 22.2%
same,Potency,[3],inactive
same,Potency,[15],"inconclusive: 37.6 µM [rising, partial curve, poor fit]"
same,Potency,[9],inactive
same,Potency,[10],active: 4.25 µM
Nc1ccc(Cl)cc1,Potency,[18],"inconclusive: 1.12 µM [cytotoxic, full curve, poor fit]"
same,activation,[2]; at 73.3 µM (top of the series),inactive: 3.98% and inconclusive: 33.3%
same,activation,[2]; at 94.8 µM (top of the series),inconclusive: 20% [phenotype inactive]
same,Potency,[11],"inconclusive: 1.11 µM [cytotoxic, full curve, poor fit]"
same,Potency,[4],inconclusive: 55.9 µM [cytotoxic]
same,activation,[5]; at 62.6 µM (top of the series),inconclusive: -1.48%
same,activation,[5]; at 81.1 µM (top of the series),inconclusive: -3.35% [phenotype inactive]
same,Potency,[12],"inactive and inconclusive: 7.04 µM [cytotoxic, full curve, poor fit]"
same,Potency,[13],"inconclusive: 7.04 µM [cytotoxic, full curve]"
same,Potency,[19],"inconclusive: 12.3 µM [falling, partial curve, poor fit]"
same,Potency,[15],"inconclusive: 43.7 µM [cytotoxic, partial curve, poor fit] and inconclusive: 2.45 µM [cytotoxic, full curve] and inconclusive: 1.98 µM [cytotoxic, full curve]"
same,Potency,[16],"inconclusive: 3.09 µM [cytotoxic, single point] and inconclusive: 5.49 µM [cytotoxic, full curve, poor fit] and inconclusive: 12.5 µM [cytotoxic, partial curve]"
same,Potency,[9],"inconclusive: 11.2 µM [cytotoxic, single point]"
same,Potency,[10],"inconclusive: 25 µM [rising, single point]"

# From PubChem BioAssay (Tox21)
